From paper PMC4336329 (PLoS ONE, 2015)
In all, about 310,000 compounds went through this assay and about 2,200 (0.71%) showed an effect of 50% or more. The effect is printed as a negative number. The list shows a part of the results.

Target: human ether-à-go-go-related gene (hERG) potassium channel (human, UniProt Q12809)
Assay: primary screen, population patch clamp on CHO cells stably expressing hERG

Chain of human ether-à-go-go-related gene (hERG) potassium channel (Q12809 whole entry, looked up): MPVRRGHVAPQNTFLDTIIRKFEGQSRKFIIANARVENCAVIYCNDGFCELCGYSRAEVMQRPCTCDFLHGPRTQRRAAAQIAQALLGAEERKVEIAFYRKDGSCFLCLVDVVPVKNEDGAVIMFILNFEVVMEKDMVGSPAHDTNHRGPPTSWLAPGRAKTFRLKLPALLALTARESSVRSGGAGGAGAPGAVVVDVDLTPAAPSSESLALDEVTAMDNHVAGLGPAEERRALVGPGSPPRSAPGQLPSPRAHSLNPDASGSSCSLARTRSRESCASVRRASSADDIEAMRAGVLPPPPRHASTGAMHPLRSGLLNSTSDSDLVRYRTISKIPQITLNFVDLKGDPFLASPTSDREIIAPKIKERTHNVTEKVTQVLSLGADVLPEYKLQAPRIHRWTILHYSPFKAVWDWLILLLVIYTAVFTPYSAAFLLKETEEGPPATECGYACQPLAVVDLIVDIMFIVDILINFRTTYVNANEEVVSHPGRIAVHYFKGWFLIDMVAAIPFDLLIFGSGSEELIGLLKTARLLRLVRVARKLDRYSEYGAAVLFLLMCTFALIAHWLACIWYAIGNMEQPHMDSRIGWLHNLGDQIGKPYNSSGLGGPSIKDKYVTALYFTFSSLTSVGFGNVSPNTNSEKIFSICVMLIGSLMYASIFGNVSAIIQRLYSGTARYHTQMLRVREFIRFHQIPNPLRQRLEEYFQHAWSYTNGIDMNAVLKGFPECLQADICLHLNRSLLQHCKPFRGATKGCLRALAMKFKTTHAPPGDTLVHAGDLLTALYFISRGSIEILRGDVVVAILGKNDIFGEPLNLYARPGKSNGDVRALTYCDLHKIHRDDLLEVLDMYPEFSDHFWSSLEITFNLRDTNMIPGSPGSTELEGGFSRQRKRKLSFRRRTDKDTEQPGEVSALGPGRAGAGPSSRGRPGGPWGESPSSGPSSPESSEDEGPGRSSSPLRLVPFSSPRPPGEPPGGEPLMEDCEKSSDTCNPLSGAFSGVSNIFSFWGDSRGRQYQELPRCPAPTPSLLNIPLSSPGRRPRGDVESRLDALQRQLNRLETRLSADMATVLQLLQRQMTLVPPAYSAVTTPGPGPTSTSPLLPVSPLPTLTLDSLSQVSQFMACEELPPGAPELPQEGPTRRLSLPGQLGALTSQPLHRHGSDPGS

Compound	hERG current change (%, negative = inhibition) at 1uM [%]
CC(C)OP(=O)(Oc1ccc(C(O)C(Cl)(Cl)Cl)cc1)OC(C)C (centres unmarked)	12.7
O=[N+]([O-])C(=c1ccc2c(c1)N1C3=C(CCCC3)CC3CCCCC31N=2)[N+](=O)[O-] (centres unmarked)	5.52
COc1ccc(CNC(=O)c2cnn3c(C(F)F)cc(C)nc23)cc1	16.4
Cc1ccc2cc3c(NC(=O)c4ccco4)nn(C)c3nc2c1	12.1
CCOc1ccccc1C(=O)N(Cc1ccccc1)Cc1cc2cc3c(cc2[nH]c1=O)OCCO3	7.8
CCCS(=O)(=O)c1cnc(C2COc3ccccc3O2)nc1N (centres unmarked)	11.6
COc1cc(OC)cc(C(=O)Nn2c(C)nc3ccccc3c2=O)c1	13.6
CCCCCn1c(SCc2cccc(C)c2)nc2c1c(=O)[nH]c(=O)n2C	15.7
COc1cc(NC(=O)COc2ccccc2[N+](=O)[O-])ccc1NC(=O)c1ccco1	5.2
CCc1c(C)sc(NC(=O)c2cc(-c3ccc(OC)c(OC)c3)on2)c1C#N	11.7
O=C(NCC1CCCO1)C1CCN(C2CCN(Cc3ccco3)CC2)CC1 (centres unmarked)	-2.26
O=C(N[C@H]1CCC(=O)N([C@H](CSc2ccccc2)Cc2ccccc2)CC1)OCc1ccccc1	0.399
COc1cccc(C(=O)COc2cccc(NC(=O)c3cccc([N+](=O)[O-])c3)c2)c1	2.87
CCCCn1c(N)c(N(CC(C)C)C(=O)C2CC(=O)N(Cc3ccco3)C2)c(=O)[nH]c1=O (centres unmarked)	-8.62
O=C(O)c1cn(Cc2ccccc2)c2ccccc2c1=O	-43.6
CCC(C)N1CCC(Oc2ccc(C(=O)NCc3ccccn3)cc2)CC1 (centres unmarked)	12.2
Cc1nn(C)c(C)c1/C=N/N=C1\CCC2C3CCc4cc(O)ccc4C3CCC12C (centres unmarked)	13
Cn1c(SCc2ccccn2)nnc1-c1ccccc1	11.5
O=C(Nc1ccc(Cl)cc1F)C1CCN(S(=O)(=O)c2cccc3nonc23)CC1	14.4
CC1=C(C(=O)OCc2ccccc2)C(c2ccccc2-c2ccccc2)NC(=O)N1CCCCCC(=O)O (centres unmarked)	1.7
Cc1ccc(C(C)C)cc1C(=O)CC1(O)C(=O)N(C)c2ccccc21 (centres unmarked)	14.3
COc1ccc(N2CCN(C(=S)Nc3cccc(C)c3C)CC2)cc1	9.51

Compound	hERG current change (%, negative = inhibition) at 1uM [%]
O=C(CC1C(=O)NCCN1Cc1ccccc1C(F)(F)F)NC1CCCCC1 (centres unmarked)	8.9
CCOc1ccc(CCNC(=O)COC(=O)COc2ccc(C(C)=O)cc2)cc1OCC	6.42
COc1ccc(C(=O)c2ccc(OC)c3cccc(O)c23)cc1OC	6.75
O=C(CN1C(=O)CC(c2ccccc2)S(=O)(=O)c2ccccc21)N1CCOCC1 (centres unmarked)	6.88
COc1cccc(NC(=O)c2ccnc(N3CCC(C(=O)NCc4ccccc4OC)CC3)c2)c1	6.15
COc1ccc2cc3cc(C(=O)N4CCN(c5ccccn5)CC4)oc3nc2c1	1.46
COc1ccccc1-n1c(=O)c2c3c(sc2n2c(SC)nnc12)CCC3	6.38
CCS(=O)(=O)N1CCN(Cc2ccc([N+](=O)[O-])cc2)CC1.O=C(O)C(=O)O	9.38
C/C=C/c1ccc(OCC(O)CN2CCCCC2CC)c(OC)c1 (centres unmarked)	0.289
CC1(c2nnc(-c3ccccc3)o2)CC(c2ccccc2)=NO1 (centres unmarked)	7.41
CC1(C)CC(=O)C=C(c2ccc(-c3ccccc3)cc2)C1	11.3
CCn1c(C)nc2cc(C(=O)NNC(=S)Nc3ccccc3Cl)ccc21	13.5
OC1(c2ccccc2F)CCN(Cc2nnnn2Cc2ccc(F)cc2)CC1	8.42
CCC(C)(C)n1nnnc1C(c1cccnc1)N1CCN(c2cccc(C(F)(F)F)c2)CC1 (centres unmarked)	1.79
CC1CCC(NC(=O)CN(C)S(=O)(=O)c2cccc3cccnc23)CC1 (centres unmarked)	9.27
Cc1cccc(C)c1NC(=O)COC(=O)c1cccc2c1C(=O)c1ccccc1C2=O	5.96
Cc1[nH]c(=S)c(C#N)c(-c2ccco2)c1C(=O)N(C)C	13.7
CCN(CC)C(=O)Cn1cc(SCC(=O)NC2CCCC2)c2ccccc21	-5.69
O=C(NC1CCCCCC1)c1ccc[nH]c1=S	12.6
C=CCn1c(COc2ccccc2)nnc1SCc1ccc(C#N)cc1	-25.5
CCC1(c2ccccc2)NC(=O)N(CC(=O)NCc2ccc(OC)cc2)C1=O (centres unmarked)	9.33
COc1ccc(NC(=O)NCCN2CCN(c3cccc(Cl)c3)CC2)cc1	-4.03

Compound	hERG current change (%, negative = inhibition) at 1uM [%]
CC(=O)CSc1nc(N(C)C)nc(N(C)C)n1	2.69
Cc1ccc2cc(C#N)c(NCc3ccccc3)nc2c1	9.66
CC(=O)c1c(C(C)=O)c(C)n(NC(=O)c2ccncc2)c1C	9.11
c1cc(CNCCc2ccc3c(c2)OCO3)ccn1	15.2
CC(C)NCCCOc1ccc(Cl)cc1Br.O=C(O)C(=O)O	-16.4
Cc1onc(-c2ccccc2)c1C(=O)NCc1ccc(Cl)cc1	5.61
C/C(=N\NC(=O)C(O)c1ccccc1)c1ccc(Br)s1 (centres unmarked)	12.1
Cn1c(O)c(N=Nc2ccccc2)c2ccccc21	17.8
O=C(NCc1ccccc1)C1=C[C@H](C2CCCCC2)C[C@H](OCCCCO)O1	15.5
CC(=O)N1C(=O)/C(=C2\SC(=S)N(c3c(C)n(C)n(-c4ccccc4)c3=O)C2=O)c2ccccc21	5.86
COc1ccc(NCCC(O)c2ccc(Cl)cc2)cc1 (centres unmarked)	9.22
O=S1(=O)C=C(SCc2ccc(F)cc2)Nc2ccccc21	-0.0092
COc1ccccc1N1CCN(C(=O)CCc2nnc3ccc(N4CCOCC4)nn23)CC1	7.42
O=C(NC1CCCCC1)C(c1cccnc1)N(CCc1ccccc1)C(=O)Cc1cccs1 (centres unmarked)	-9.27
CCOC(=O)N(CC)c1ccc(C(O)(C(=O)OCC)C(F)(F)F)cc1 (centres unmarked)	12.8
COc1cc(/C=C/C(=O)O)ccc1OS(=O)(=O)c1cc(C)ccc1C	10.5
CN(Cc1ccccc1)C(=O)C1CCCN(Cc2ccc(Cl)cc2)C1.O=C(O)C(=O)O (centres unmarked)	-44.1
COc1cc(NC(=O)c2ccccc2F)c(OC)cc1NC(=O)CN1CCCCC1.Cl	1.58
COC(=O)c1ccc(NC(=O)COc2ccc3c(c2)OCO3)cc1	3.83
C=CCn1c(=O)c(C(=O)Nc2ccccc2C(=O)OCC)c(O)c2ccccc21	4.69
Nc1c(S(=O)(=O)c2ccccc2)c2nc3ccccc3nc2n1/N=C/c1ccco1	16.2
Cc1ccccc1OCC(O)Cn1c(Br)nc2c1c(=O)n(C)c(=O)n2C (centres unmarked)	15.3

Compound	hERG current change (%, negative = inhibition) at 1uM [%]
COc1cc(/C=C/C(=O)O)cc(S(=O)(=O)Nc2ccc3c(c2)OCO3)c1OC	5.49
COc1ccc(NC(=O)c2nnn(CC(=O)Nc3ccc4c(c3)OCO4)c2N)c(OC)c1	14
CCOC(=O)c1cccc(NC(=O)CSc2nnc(-c3ccoc3C)n2CC)c1	7.74
COc1ccc(/C=C(\CC(=O)O)c2nc3ccccc3s2)cc1O	11.5
Cc1cc(=O)oc2cc(OCC(=O)N/N=C/c3ccccc3O)ccc12	18.3
CC(=O)c1ccc(N2CCN(C(=O)c3ccc(-c4ccccc4)cc3)CC2)cc1	14.3
CN1CCC(N(C)CC(=O)Nc2cccc(Oc3ccccc3)c2)CC1.O=C(O)C(=O)O	19.8
Cc1[nH]c2ccc(-c3nnc(SCC(=O)c4ccccc4F)o3)cc2c1C	5.65
Cc1ccc(-n2c(CC#N)n[nH]c2=S)c(C)c1	10.4
COCCCNC(=O)c1ccc2c(c1)ncn2-c1ccc(C)cc1C	15
CCN(CC)C(=O)C1CCCN(c2ccc([N+](=O)[O-])cc2[N+](=O)[O-])C1 (centres unmarked)	-5.42
O=C(Oc1cccc2cccnc12)c1ccc2c(c1)OCCO2	5.34
COc1ccc(N(CCN2C(=O)c3ccccc3C2=O)C(=O)c2cccc([N+](=O)[O-])c2)cc1	0.842
O=C(NCc1ccccc1)c1cc(-c2cccs2)on1	11.4
COc1cccc(NC(=O)c2cccc(C)c2[N+](=O)[O-])c1	4.58
S=C(c1nc2ccccc2[nH]1)N1CCOCC1	6.34
O=C(O)c1ccccc1C(=O)Nc1ccccc1	0.987
O=C(NC1CCN(S(=O)(=O)c2ccc(Cl)cc2)CC1)C1CCCCC1	6.91
Cc1cc(C)c2c(n1)SCC(=O)N2CC(=O)Nc1cccc(Cl)c1	4.74
O=C(NCCN1CCN(c2ccccc2)CC1)Nc1ccccc1Br	10.3
